Test results reported in patent publication US20250382361A1, “AFFIBODIES, HYDROGELS CONTAINING AFFIBODIES, AND USES THEREOF” (University of Oregon, priority 2024, published 2025).
pKd: −log10 of the molar value.

Legend:
NIH/3T3-Luc cells = assay: PDGF bioactivity luciferase reporter assay; assay type: cell-based; details: affibody co-incubated with rhPDGF-BB, FIGS. 30C-30F
Protocol: NIH/3T3 fibroblast cells (ATCC) were thawed, seeded at 10,000 cell/cm^2, and expanded in growth medium consisting of DMEM containing 10% (v/v) fetal bovine serum (R&D Systems, Minneapolis, MN). Cultures were routinely maintained at 37° C. and 5% CO2 and passaged at 60-70% confluence. After three passages of expansion, NIH/3T3 cells were grown in Eagle's Minimal Essential Medium (EMEM, ATCC) for a single passage prior to transfection. Transfection mixtures were prepared according to the manufacturer's protocols. Briefly, 2500 ng of luciferase reporter plasmid pGL4.33 [luc2P/SRE/Hygro] (Promega), which contains a serum response element that regulates luciferase expression as a function of Rhoa GTPase activation and multiple mitogen activated phosphorylated kinase (MAPK) pathways, was combined with 12.5 μL of Lipofectamine Plus™ reagent and 227.5 μL of Opti-MEM buffer (Thermo Fisher Scientific, Waltham, MA) and mixed for 10 minutes at room temperature. Concurrently, Lipofectamine Plus™ mix was prepared by combining 14.3 μL of Lipofectamine Plus™ solution with 271.7 μL of Opti-MEM buffer solution for 10 minutes. Lipofectamine Plus™ mix was then combined with Plus Reagent DNA mix at a 1:1 ratio and incubated for an additional 15 minutes. During this step, NIH/3T3 cells were trypsinized and seeded into 96-well plates at 40,000 cells/cm^2 in 135 μl of EMEM. Cells were then transfected by adding 65 μL of Lipofectamine Plus Reagent DNA mix per well and incubated for 48 h at 37° C. and 5% CO2. Individual wells were combined to establish a polyclonal population of transfected cells. Cells were expanded and passaged 4 times between 60-70% confluency in growth medium containing 200 μg/mL hygromycin (selective medium) to remove the transiently transfected population, then continually passaged in selective medium to maintain the stably transfected NIH/3T3 cell population. Stably transfected NIH/3T3 cells, hereafter referred to as NIH/3T3-Luc, were expanded and stored in liquid nitrogen at post-transfection passage 5 until use.
NIH/3T3-Luc cells were seeded at 31,250 cells/cm^2 and incubated in 100 μL of growth medium overnight in 96 well plates. […] Luminescence was then measured using SpectraMax 13 plate reader (Molecular Devices, San Jose, CA).
PDGF bioactivity was assessed using NIH/3T3 cells transfected with a firefly luciferase gene reporter plasmid that links multiple ERK1/2 signaling pathways, including PDGFRβ signaling, to luciferase expression through a serum response element under the regulation of ERK1/2 (FIG. 30A). […] Firefly luciferase expression was assessed via the conversion of 5′-fluoroluciferin to oxyfluoroluciferin, which generates a stable luminescent output correlated to firefly luciferase concentration. […]

PDGF-BB = PDGF-BB (Homo sapiens, UniProt P01127); assay: Biolayer interferometry, affibody vs PDGF; assay type: binding; set-up: purchased PeproTech
Sequence of PDGF-BB (P01127 82-190 limits assumed): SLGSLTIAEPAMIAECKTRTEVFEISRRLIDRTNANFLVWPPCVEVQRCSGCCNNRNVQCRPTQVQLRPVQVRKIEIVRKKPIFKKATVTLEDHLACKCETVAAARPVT
Protocol: The binding interaction between PDGF and each soluble affibody was measured using a Gator® Plus biolayer interferometer (BLI; Gator Bio). Each soluble His-tagged affibody was diluted to 200 nM in PBS with 0.05% Tween20 (PBST; Thermo Fisher). Recombinant human PDGF-BB was buffer-exchanged into PBS and diluted to concentrations between 0-50 nM in PBST. Ni-NTA coated BLI probes (Gator Bio) were pre-soaked in 250 μL PBST for 45 minutes. The probes were then baselined with 200 μL PBST for 300 seconds and loaded with affibody for 180 seconds or until the wavelength shift plateaued. A new baseline was established using 200 μL PBST for 180 seconds, followed by 600 seconds of association with 200 μL of the various concentrations of rhPDGF-BB and dissociation for 600 seconds in 200 μL PBST.
Loaded probes were submerged in PBST until the baseline wavelength reading stabilized (approximately 300 seconds). 3.125-1000 nM of soluble VEGF-specific affibodies serially diluted in PBST were associated to the bVEGF-loaded probes for 600 seconds. Probes were then submerged into PBST or 600 seconds to measure dissociation of the affibodies. For measuring binding between PDGF and PDGF-specific affibodies, nitrilotriacetic acid (Ni-NTA) functionalized glass probes (GatorBio) were similarly pre-soaked in PBST, then loaded with 200 nM of PDGF-specific affibodies in PBST for 300 seconds until an approximate wavelength shift of 0.5 nm was achieved. Loaded probes were submerged in PBST until the baseline wavelength reading stabilized (approximately 300 seconds). 1.563-50 nM of soluble PDGF serially diluted in PBST were associated to the affibody-loaded probes for 600 seconds. Probes were then submerged into PBST for 600 seconds to measure dissociation of PDGF. Measurements were also taken of bVEGF loaded onto the streptavidin-functionalized probes without affibodies, affibodies loaded onto Ni-NTA probes without PDGF, and 0.0625-50 nM of PDGF without affibodies loaded onto Ni-NTA probes to subtract background signal from the data. Binding curves were normalized to data from probes loaded with only affibodies and only growth factors using GatorOne software 2.10 (GatorBio).
Biolayer interferometry (BLI) was also performed using streptavidin-functionalized glass probes to measure binding of affibodies to their off-target proteins.
Binding curves were fit to a global best-fit, non-linear regression model using GraphPad Prism 10.1.1 in which R^2>0.97 to determine the equilibrium dissociation constant (KD), on-rate constant (koff), and off-rate constant (kon) of each binding interaction.
Rosetta Rational Design Generates PDGF-specific Affibodies with Unique Binding Kinetics: Binding of PDGF to PDGF-specific affibodies was evaluated by loading nickel nitrilotriacetic acid (Ni-NTA)-coated BLI probes with 200 nM of each of the PDGF affibodies, followed by association of 1.563-50 nM of PDGF (FIG. 45G). […] Similar to the VEGF-specific affibody, the lower observed affinity between the original PDGF-specific affibody and PDGF on yeast surface display could be due to increased steric hindrance and decreased mobility of the PDGF-affibody binding interface compared to BLI.

[1] = BLI, binding to PDGF, global fit

AEAKYAFELWEAQHEIQQLPNLRPDQIAAFAMALYDDPSQSSELLSEAKKLNDSQAPK [SEQ ID NO: 59]
luciferase expression vs rhPDGF-BB treatment only (NIH/3T3-Luc cells): decreased | higher equilibrium dissociation constant than PDGF Affibody-16 (PDGF-BB; BLI): 10 fold | koff (PDGF-BB; [1]): 0.01822 s⁻¹ | kon (PDGF-BB; [1]): 236,620 M^−1 s^−1 | pKd (PDGF-BB; Table 1, engineered PDGF affibodies, values match BLI): 7.11
